According to PubChem BioAssay (Tox21):
Where “and” joins values, the source holds several entries; their conditions need not be identical. Equal values may be shown once. This list was built around the results that the source calls inconclusive (neither active nor inactive); the mix of calls is not that of the screen. Potencies of inconclusive entries are doubtful fits and often do not repeat. Where a structure was tested more than once in an assay, its records may differ in their call. Calls of active or inactive are those of the source. Calls come from the whole dose curve; as a rule, active = well fitted activation curve with a large enough effect in the repeat runs; inconclusive = weak or mixed curves; inactive = flat fitted curve, though single readings scatter.

Assay: A CellTox Green Cytotoxicity Assay to monitor cytotoxicity in HEK293 cells - 40 hour (AID 1224871); note: nearly all actives have a fitted effect of over 45% in size
Conditions: CellTox Green fluorescence; series mostly up to 76.8 µM
Summary of the method: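 Tox21 screen in HEK293: membrane-impermeant cyanine dye fluoresces on binding dead-cell DNA; compound pinned 5 h post-seeding, plates held at 37 C, signal read repeatedly through 40 h.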
Potency is the fitted concentration of half-maximal effect; tags give direction and shape of the fitted curve.

SMILES	Potency
O=C(O)c1ccc2c(c1)C(=O)OC2=O	inconclusive: 21.9 µM [activator, single point]
Cc1cc2nc3c(=O)[nH]c(=O)nc-3n(C[C@H](O)[C@H](O)[C@H](O)CO)c2cc1C	active: 43.2 µM and active: 40.5 µM and active: 10.4 µM
OCCO	inconclusive: 60 µM [activator, single point]
C[C@]12CC[C@@H]3c4ccc(O)cc4CC[C@H]3[C@@H]1CCC2=O	inconclusive: 48.1 µM [activator, single point]
c1ccc2n[nH]nc2c1	inconclusive: 12 µM [activator, single point]
CCCCC(CC)COC(=O)CC(C(=O)OCC(CC)CCCC)S(=O)(=O)O (stereo not drawn)	inconclusive: 42 µM [activator, partial curve, poor fit]
O=C(O)c1ccc([N+](=O)[O-])cc1	inactive
CCCCC/C(C=O)=C\c1ccccc1	inconclusive: 69.3 µM [activator, partial curve, poor fit] and inconclusive: 61.7 µM [activator, single point]
